In paper PMC6696147, “Broad-Spectrum Antiviral Natural Products from the Marine-Derived Penicillium sp. IMB17-046” (Molecules, 2019) one finds IC50 data, which are given here for six compounds.

For this experiment, the system named is influenza A/WSN/33 (H1N1) viruses. Kind of experiment: microbe, parasite or virus in culture. The conditions noted are these: 24 h, read-out: IAV IC50.
On to `C=C(CC[C@@H](C)[C@H]1CC[C@H]2C3=C(CC[C@]12C)[C@@]1(C)CC[C@H](O)CC1CC3=O)C(C)C` (stereo partly drawn) [Compound 7, 3β-hydroxyergosta-8,24(28)-dien-7-one], for which the half-maximal inhibitory concentration (IC50) (usually the concentration needed to halve the response being measured) was over 10 µM.

Regarding `NC(=O)c1ncn([C@@H]2O[C@H](CO)[C@@H](O)[C@H]2O)n1` [Ribavirin, reference compound], the IC50 worked out at 15.4 ± 0.9 µM.

With `COc1cc(=O)oc(C=CC=CC=CC(C)=CC2(C)OC(C)C(C)(O)C2O)c1C` (single isomer, unassigned; (+)) [Compound 2, (+)-neocitreoviridin], the IC50 amounted to 3.6 ± 0.2 µM.

`CC[C@H](C)c1nc(OC)c(Cc2c[nH]c3ccccc23)nc1O` [Compound 1, (S)-6-((1H-indol-3-yl)methyl)-3-(sec-butyl)-5-methoxypyrazin-2-ol]: the IC50 amounted to 20.4 ± 0.3 µM.

In the case of `CC(C)[C@@H](C)/C=C/[C@@H](C)[C@H]1CC[C@H]2C3=C[C@@H](O)[C@@]4(O)C[C@@H](O)CC[C@]4(C)[C@H]3CC[C@]12C` [Compound 8, (22E,24R)-24-methyl-5α-cholesta-7,22-dien-3β,5,6β-triol], the IC50 was over 10 µM.

As to `C=C(CC[C@@H](C)[C@H]1CC=C2C3=C(CC[C@@]21C)[C@@]1(C)CC[C@H](O)CC1CC3=O)C(C)C` (stereo partly drawn) [Compound 3, 3β-hydroxyergosta-8,14,24(28)-trien-7-one], the half-inhibitory concentration (IC50) amounted to 0.5 ± 0.02 µM.
